Assay results published in ChEMBL document CHEMBL1157539, “Thousands of chemical starting points for antimalarial lead identification” (Nature, 2010).
Over roughly 13,000 compounds, “IFI” has its median near 4; the highest 2% begin near 17. Some of the results follow.

Test: GSK_TCMDC: Inhibition Frequency Index (IFI). The number of non-kinase HTS assays where a compound showed > 50 % inhibition, expressed as a percentage of the number of such assays in which the compound was tested (-0 is zero)
Type: functional

Row | SMILES | IFI [%]
1 | CCCc1cc(N2CCC(N(CC)CC)C2)nc(Nc2ccc(OC)cc2)n1 (stereo not given) | 1.2
2 | N#Cc1cccc(Nc2nccc(NCC(O)c3ccc(C(F)(F)F)cc3)n2)c1 (stereo not given) | 20.4
3 | Cc1nc(-c2cccc(Nc3nccc(NCC(O)c4cccc(C(F)(F)F)c4)n3)c2)cs1 (stereo not given) | 11
4 | Cc1cccc(N2C(N)=NC(N)=NC2(C)C)c1C | -0
5 | CS(=O)(=O)c1ccc(CNCc2ccc(-c3cccc(-c4nc5ccccc5[nH]4)c3)cc2)cc1 | 6.8
6 | c1ccc2c3c(ccc2c1)Sc1c(ccc2ccccc12)N3 | 5.07
7 | CCc1cn2c3c(cc(C(=O)N[C@@H](Cc4cc(F)cc(F)c4)[C@H](O)CNC4CC4)cc13)N(C)S(=O)(=O)CC2 | 2.94
8 | CS(=O)(=O)c1ccc(-c2nc(NCC3CCCCC3)cc(C(F)(F)F)n2)cc1 | 4.44
9 | N#Cc1ccc(N[C@@H](CC2CCCCC2)C(=O)NCc2cc(F)c(F)cc2F)c2ccccc12 | 4.76
10 | COc1ccc(C=Cc2cc(=N)c3ccccc3[nH]2)cc1Br | 2.82
11 | Fc1ccc(Nc2nnc(CNC3CCN(Cc4ccc(Cl)c(Cl)c4)CC3)[nH]2)cc1 | 10
12 | CCc1ccc(NC(=O)c2cccc(CN3CCCN(Cc4cccc(O)c4)CC3)c2)cc1 | 5.63
13 | COc1cc(F)c2ncc(Cl)c([C@H](O)CN3CCC(NCc4cc5c(cn4)OCCO5)CC3)c2c1 | 0.88
14 | O=C(N[C@@H](CC1CCCCC1)C(=O)NCCN1CCCCC1)c1ccc(O)c(-c2cccc(C(F)(F)F)c2)c1 | 2.86
15 | O=C(NC(=O)c1ccccc1O)c1ccccc1O | 0
16 | COc1cccc(NC(=O)c2ccc(NCCCN3CCC(C)CC3)c([N+](=O)[O-])c2)c1 | 1.47
17 | c1cc(CN2CCC(CCN3CCCCC3)CC2)cc(-c2csc(-c3nc4ccccc4[nH]3)c2)c1 | 6.94
18 | Cc1cc2nc(-c3ccc(C(=O)NCc4cccc(C(F)(F)F)c4)cc3)[nH]c2cc1C | 3.01
19 | O=C(Cc1ccc(NC(=O)c2ccc(O)c(-c3ccc(Cl)c(Cl)c3)c2)cc1)NCCN1CCCCC1 | 1.48
20 | N=C(NCCc1ccc(Cl)cc1)c1ccc(Cl)c(Cl)c1 | 1.49

Row | SMILES | IFI [%]
21 | C=CCOc1cc(Cc2cnc(N)nc2N)cc(OC)c1OC | 0.73
22 | O=C(Nc1ccc(S(=O)(=O)N2CCCCCC2)cc1)c1cc(-c2ccccc2O)n[nH]1 | 4.41
23 | O=C(Nc1cccc(F)c1)NC1CCN(c2ccnc3cc(Cl)ccc23)C1 (stereo not given) | -0
24 | CCC1N=C(N)N=C(N)N1OCc1cccc2ccccc12 (stereo not given) | 2.16
25 | COc1cc([N+](=O)[O-])ccc1NC(=O)c1cc(Cl)ccc1O | 35.6
26 | CC(C)C1=NC(=O)c2cc([N+](=O)[O-])ccc2CN1 | 0.67
27 | c1ccc(OCCOc2ccc(Nc3ccnc4cc5ccccc5cc34)cc2)cc1 | 9.56
28 | O=C(Nc1cccc(-c2cccc(-c3ccc(F)cc3)n2)c1)c1ccc([N+](=O)[O-])o1 | 19.1
29 | COc1ccc(CNCc2cccc(-c3csc(-c4nc5ccccc5[nH]4)c3)c2)cc1 | 2.86
30 | CN1CCC(Oc2cc(CN3CC[C@H](NC(=O)c4ccc(Cl)c(Cl)c4)C3)ccc2I)C1 (stereo not given in full) | 16.7
31 | COc1cc2c(cc1C(F)(F)F)N(C(=O)Nc1cc(F)cc(-c3cccnn3)c1)CC2 | 0.7
32 | NC1CCCN(Cc2cccc(-c3ccc(-c4nc5ccccc5[nH]4)s3)c2)C1 (stereo not given) | 4.29
33 | CCOc1ccc(NC(=O)c2ccc(CN3CCCN(Cc4cccc(O)c4)CC3)cc2)cc1 | 9.02
34 | CC(C)(CNC(=O)[C@@H]1CCCN(Cc2ccc(Cl)cc2)C1)c1nc(-c2ccc(Cl)c(O)c2)c(-c2ccncc2)[nH]1 | 2.19
35 | O=C(NC(CCCN1CCC(c2ccccc2)CC1)c1ccc(Cl)c(Cl)c1)c1cc(C(F)(F)F)cc(C(F)(F)F)c1 (stereo not given) | 4.76
36 | CN1CCC(Oc2ccc(CN3CC[C@H](NC(=O)c4ccc(Cl)c(Cl)c4)C3)cc2Cl)C1 (stereo not given in full) | 10
37 | Cc1[nH]c(C)c(-c2ccc(-c3ccccc3C(F)(F)F)nc2)c(=O)c1Br | 0.92
38 | O=C(C=Cc1ccc(Cl)c(Cl)c1)NCCCCCN1CCC(CCCNC(=O)C2CC2c2ccccc2)CC1 (stereo not given) | 5.67
39 | CN(C)c1ccnc2ccc(NC(=O)Nc3ccnc4ccccc34)cc12 | 6.02
40 | O=S(=O)(Nc1cc2c(cc1O)CCN(C1CCC1)CC2)c1ccc(Oc2ccc(F)cc2)cc1 | 3.08

Row | SMILES | IFI [%]
41 | C[C@@H](C(N)=O)N1CCCCC1c1ccc(OCc2cccc(F)c2)cc1 (stereo not given in full) | 33.8
42 | Cc1cc(OCCCN2CCC(NC(=O)c3ccc(Br)cc3)C2)c2ccccc2n1 (stereo not given) | 0.9
43 | COc1ccc(C(=O)CCc2ccc(O)cc2)cc1 | 0
44 | O=C(NC1c2ccccc2Oc2ccccc21)c1ccccc1O | 0.74
45 | COC(=O)[C@@H](NC(=O)[C@H](CC(C)C)Nc1ccc(C#N)c2ccccc12)c1ccc(O)cc1 | 4.85
46 | CNC(=O)C1Cc2c([nH]c3ccc(Cl)cc23)C2(CCN(CCc3ccccc3)CC2)N1 (stereo not given) | 5.97
47 | CN1CCN(S(=O)(=O)c2ccc3nccc(Nc4ccc(Oc5ccccc5)cc4)c3c2)CC1 | 0.72
48 | O=C(CNc1ccc(Cl)c(S(=O)(=O)N2CCCC2)c1)Nc1ccc(Br)cc1F | 5.97
49 | O=[N+]([O-])c1cccc(CNC2CCN(Cc3ccc4ccccc4c3)CC2)c1 | 2.13
50 | CN(C)CC(=O)NCC(NCCCNc1cc(=O)c2ccccc2[nH]1)c1cc(Br)cc(Br)c1 (stereo not given) | 8.03
51 | Cc1nc2nc(N)nc(N)c2c(C)c1Cc1ccccc1Cl | 2.22
52 | Cc1cc(N2CC=CCC2)nc(NC(=N)Nc2ccc(Cl)cc2)n1 | 4.29
53 | CC1(C)N=C(N)N=C(N)N1c1cc(Cl)c(Cl)c(Cl)c1 | 2.88
54 | CC(C)(C)c1ccccc1SC1=C(O)CC2(CCNCC2)OC1=O | 0.71
55 | Cc1cc(N2CCCC2)nc(Nc2ccc(NC(=O)C(C)(C)C)cc2)n1 | 2.38
56 | CC(C)CNC(=S)N1CCCN(c2nc3ccc(Cl)cc3s2)CC1 | 4.35
57 | CNC(=O)c1ccccc1Nc1nc(Nc2ccc(N3CCOCC3)cc2)ncc1Cl | 8
58 | COC1CCC(C(=O)Nc2ccc(-c3cccc(-c4nc5cccc(C)c5[nH]4)c3)cc2)CC1 (stereo not given) | 7.14
59 | CC1(C)N=C(NC(=O)Nc2ccc([N+](=O)[O-])cc2)N=C(N)N1OCc1cccc2ccccc12 | 1.46
60 | CCc1nc2ccc(C(=O)OC)nc2n1Cc1ccc2oc(-c3ccccc3N)c(Br)c2c1 | 10.8
